In patent publication US20240076343A1 (CEPHALON, published 2024):

How the values were obtained:
[1] = target: T1, intermediate-affinity hIL-2 receptor (IL-2Rβγ) on TF1+IL-2Rβ cells (human, UniProt P14784 27-551; P31785 23-369); assay: cell-based or functional assay
T1 sequence 1: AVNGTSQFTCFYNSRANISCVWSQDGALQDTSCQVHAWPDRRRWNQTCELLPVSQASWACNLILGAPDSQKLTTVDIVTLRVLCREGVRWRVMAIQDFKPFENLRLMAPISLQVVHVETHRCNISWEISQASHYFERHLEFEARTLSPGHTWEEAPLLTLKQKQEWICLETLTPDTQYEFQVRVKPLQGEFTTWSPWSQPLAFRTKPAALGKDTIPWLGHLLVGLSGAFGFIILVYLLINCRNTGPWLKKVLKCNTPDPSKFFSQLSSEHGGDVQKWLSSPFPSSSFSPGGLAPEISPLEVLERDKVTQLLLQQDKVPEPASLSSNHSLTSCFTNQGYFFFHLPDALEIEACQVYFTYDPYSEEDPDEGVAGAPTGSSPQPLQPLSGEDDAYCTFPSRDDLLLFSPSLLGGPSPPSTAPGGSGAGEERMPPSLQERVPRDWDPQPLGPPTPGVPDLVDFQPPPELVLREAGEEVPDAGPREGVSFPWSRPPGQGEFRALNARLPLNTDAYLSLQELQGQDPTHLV
T1 sequence 2: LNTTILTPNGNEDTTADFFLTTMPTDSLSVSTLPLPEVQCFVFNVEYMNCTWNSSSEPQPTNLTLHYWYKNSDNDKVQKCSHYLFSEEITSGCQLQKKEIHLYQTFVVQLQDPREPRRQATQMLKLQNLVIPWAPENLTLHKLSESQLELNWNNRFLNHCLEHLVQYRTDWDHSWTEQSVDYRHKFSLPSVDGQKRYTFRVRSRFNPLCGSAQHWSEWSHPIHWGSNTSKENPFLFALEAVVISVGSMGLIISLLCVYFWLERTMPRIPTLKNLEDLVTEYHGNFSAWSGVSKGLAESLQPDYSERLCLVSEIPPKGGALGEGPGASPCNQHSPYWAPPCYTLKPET

[2] = target: T2, high-affinity hIL-2 receptor (IL-2Rαβγ) on NK-92 cells (human, UniProt P01589 22-272; P14784 27-551; P31785 23-369); assay: cell-based or functional assay
T2 sequence 1: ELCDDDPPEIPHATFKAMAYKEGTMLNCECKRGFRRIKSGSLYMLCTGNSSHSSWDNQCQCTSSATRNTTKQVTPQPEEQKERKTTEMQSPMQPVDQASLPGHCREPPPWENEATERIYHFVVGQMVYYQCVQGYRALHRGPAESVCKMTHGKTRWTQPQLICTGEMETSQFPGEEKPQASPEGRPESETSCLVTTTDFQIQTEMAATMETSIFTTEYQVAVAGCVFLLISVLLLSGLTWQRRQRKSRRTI
T2 sequence 2: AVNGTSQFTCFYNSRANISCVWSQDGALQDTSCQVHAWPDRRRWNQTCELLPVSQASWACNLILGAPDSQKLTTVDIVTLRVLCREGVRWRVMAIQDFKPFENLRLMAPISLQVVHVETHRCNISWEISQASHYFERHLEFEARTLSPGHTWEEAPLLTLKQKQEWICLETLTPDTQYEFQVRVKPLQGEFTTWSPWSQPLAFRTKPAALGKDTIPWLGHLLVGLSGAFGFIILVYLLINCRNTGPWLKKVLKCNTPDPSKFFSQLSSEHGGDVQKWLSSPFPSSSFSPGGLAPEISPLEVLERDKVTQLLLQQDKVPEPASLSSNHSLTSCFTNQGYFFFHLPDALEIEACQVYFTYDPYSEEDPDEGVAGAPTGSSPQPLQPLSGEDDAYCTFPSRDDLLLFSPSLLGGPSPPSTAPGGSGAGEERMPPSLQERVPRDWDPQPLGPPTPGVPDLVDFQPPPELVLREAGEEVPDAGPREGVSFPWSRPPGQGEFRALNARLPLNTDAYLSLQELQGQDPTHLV
T2 sequence 3: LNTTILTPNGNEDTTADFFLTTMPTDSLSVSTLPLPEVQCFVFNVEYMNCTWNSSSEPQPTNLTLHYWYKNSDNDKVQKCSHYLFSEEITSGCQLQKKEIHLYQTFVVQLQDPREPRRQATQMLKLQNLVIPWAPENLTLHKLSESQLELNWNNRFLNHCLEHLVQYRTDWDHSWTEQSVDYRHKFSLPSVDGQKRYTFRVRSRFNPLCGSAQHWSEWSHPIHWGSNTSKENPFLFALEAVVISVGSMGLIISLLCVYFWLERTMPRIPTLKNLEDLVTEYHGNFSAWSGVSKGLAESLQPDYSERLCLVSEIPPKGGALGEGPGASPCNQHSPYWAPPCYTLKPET

[3] = target: T1, intermediate-affinity hIL-2 receptor …; assay: cell-based or functional assay; remark: listed apart in the source
[4] = target: T3, recombinant His-tagged human PD-1 (Acro Biosystems) (human, UniProt Q15116 fragment); assay: SPR Carterra LSA;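 note: antibodies or fusion proteins amine-coupled on an HC30M chip, soluble His-tagged human or cynomolgus PD-1 titrated over them, non-regenerative kinetics, constants fitted from titration curves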
T3 construct: His-tagged; also called hPD-1
T3 sequence (Q15116 25-167 limits assumed): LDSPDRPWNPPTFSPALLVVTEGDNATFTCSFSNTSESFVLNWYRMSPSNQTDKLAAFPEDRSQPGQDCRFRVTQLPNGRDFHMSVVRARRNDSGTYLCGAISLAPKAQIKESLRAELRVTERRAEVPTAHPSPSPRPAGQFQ

[5] = target: T4, recombinant His-tagged cynomolgus PD-1 (Acro Biosystems) (cynomolgus, UniProt B0LAJ3 25-170); assay: SPR Carterra LSA;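 note: antibodies or fusion proteins amine-coupled on an HC30M chip, soluble His-tagged human or cynomolgus PD-1 titrated over them, non-regenerative kinetics, constants fitted from titration curves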
T4 construct: His-tagged; also called Cyno PD-1; not shown: His tag (and any linker) of the Acro Biosystems product
T4 sequence (B0LAJ3 entry or part of it limits assumed): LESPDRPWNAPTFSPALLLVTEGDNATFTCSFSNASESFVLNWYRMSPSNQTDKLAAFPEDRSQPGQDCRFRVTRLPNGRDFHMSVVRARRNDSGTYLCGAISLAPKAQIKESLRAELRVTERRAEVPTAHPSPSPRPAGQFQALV

B1: A2-hIgG4-df-hIL-2 (F42A/N88R) (other)
heavy: DVQLVESGGGLVQPGGSLRLSCAASGFTFDISAMSWVRQAPGKGLEWVSTISGSAYSTYYADSVKGRFTISRDNSKSTLYLQMNSLRAEDTAVYYCAREIFSDYWGLGTLVTVSSASTKGPSVFPLAPCSRSTSESTAALGCLVKDYFPEPVTVSWNSGALTSGVHTFPAVLQSSGLYSLSSVVTVPSSSLGTKTYTCNVDHKPSNTKVDKRV[not shown - about 350 residues with a human IgG4 Fc and changes]
light: QSVLTQPPSASGTPGQRVTISCSGSTSNIGRESVYWYQQLPGTAPKLLIYSNVQRPSGAPNRFSGSKSGTSASLAISGLQSEDEADYYCGTWDDSLNGWVFGGGTKLTVLGQPKAAPSVTLFPPSSEELQANKATLVCLISDFYPGAVTVAWKADSSPVKAGVETTTPSKQSNNKYAASSYLSLTPEQWKSHRSYSCQVTHEGSTVEKTVAPTECS
Q: Which results are given for B1?
A: Agonistic Activity (TF1 + IL-2Rβ) [1]: 90%; Fold change from rhIL-2 (TF1 + IL-2Rβ) [1]: ~3760 fold; Fold change from rhIL-2 (NK-92) [2]: 6420 fold; Fold decrease from rhIL-2 (TF1 + IL-2Rβ + hPD-1) [3]: ~0 fold

B2: A2-hIgG4-df-hIL-2 (F42T/I92D) (other)
heavy: DVQLVESGGGLVQPGGSLRLSCAASGFTFDISAMSWVRQAPGKGLEWVSTISGSAYSTYYADSVKGRFTISRDNSKSTLYLQMNSLRAEDTAVYYCAREIFSDYWGLGTLVTVSSASTKGPSVFPLAPCSRSTSESTAALGCLVKDYFPEPVTVSWNSGALTSGVHTFPAVLQSSGLYSLSSVVTVPSSSLGTKTYTCNVDHKPSNTKVDKRV[not shown - about 350 residues with a human IgG4 Fc and changes]
light: QSVLTQPPSASGTPGQRVTISCSGSTSNIGRESVYWYQQLPGTAPKLLIYSNVQRPSGAPNRFSGSKSGTSASLAISGLQSEDEADYYCGTWDDSLNGWVFGGGTKLTVLGQPKAAPSVTLFPPSSEELQANKATLVCLISDFYPGAVTVAWKADSSPVKAGVETTTPSKQSNNKYAASSYLSLTPEQWKSHRSYSCQVTHEGSTVEKTVAPTECS
Q: Which results are given for B2?
A: Fold change from rhIL-2 (TF1 + IL-2Rβ) [1]: ~5650 fold; Fold change from rhIL-2 (NK-92) [2]: 2180 fold; Fold decrease from rhIL-2 (TF1 + IL-2Rβ + hPD-1) [3]: ~1 fold

B3: A2-hIgG4-df-hIL-2 (F42Q/I92D) (other)
heavy: DVQLVESGGGLVQPGGSLRLSCAASGFTFDISAMSWVRQAPGKGLEWVSTISGSAYSTYYADSVKGRFTISRDNSKSTLYLQMNSLRAEDTAVYYCAREIFSDYWGLGTLVTVSSASTKGPSVFPLAPCSRSTSESTAALGCLVKDYFPEPVTVSWNSGALTSGVHTFPAVLQSSGLYSLSSVVTVPSSSLGTKTYTCNVDHKPSNTKVDKRV[not shown - about 350 residues with a human IgG4 Fc and changes]
light: QSVLTQPPSASGTPGQRVTISCSGSTSNIGRESVYWYQQLPGTAPKLLIYSNVQRPSGAPNRFSGSKSGTSASLAISGLQSEDEADYYCGTWDDSLNGWVFGGGTKLTVLGQPKAAPSVTLFPPSSEELQANKATLVCLISDFYPGAVTVAWKADSSPVKAGVETTTPSKQSNNKYAASSYLSLTPEQWKSHRSYSCQVTHEGSTVEKTVAPTECS
Q: What does the source list for B3?
A: Fold change from rhIL-2 (TF1 + IL-2Rβ) [1]: ~3360 fold; Fold change from rhIL-2 (NK-92) [2]: 8570 fold; Fold decrease from rhIL-2 (TF1 + IL-2Rβ + hPD-1) [3]: ~5 fold

B4: A2-hIgG4-df-hIL-2 (F42W/I92D) (other)
heavy: DVQLVESGGGLVQPGGSLRLSCAASGFTFDISAMSWVRQAPGKGLEWVSTISGSAYSTYYADSVKGRFTISRDNSKSTLYLQMNSLRAEDTAVYYCAREIFSDYWGLGTLVTVSSASTKGPSVFPLAPCSRSTSESTAALGCLVKDYFPEPVTVSWNSGALTSGVHTFPAVLQSSGLYSLSSVVTVPSSSLGTKTYTCNVDHKPSNTKVDKRV[not shown - about 350 residues with a human IgG4 Fc and changes]
light: QSVLTQPPSASGTPGQRVTISCSGSTSNIGRESVYWYQQLPGTAPKLLIYSNVQRPSGAPNRFSGSKSGTSASLAISGLQSEDEADYYCGTWDDSLNGWVFGGGTKLTVLGQPKAAPSVTLFPPSSEELQANKATLVCLISDFYPGAVTVAWKADSSPVKAGVETTTPSKQSNNKYAASSYLSLTPEQWKSHRSYSCQVTHEGSTVEKTVAPTECS
Q: Which results are given for B4?
A: Agonistic Activity (TF1 + IL-2Rβ) [1]: 50%; Fold change from rhIL-2 (TF1 + IL-2Rβ) [1]: ~4410 fold; Fold change from rhIL-2 (NK-92) [2]: 1240 fold; Fold decrease from rhIL-2 (TF1 + IL-2Rβ + hPD-1) [3]: ~4 fold

B5: OMC476pH7-hIgG4 (antibody)
heavy: DMQLVESGGGVVRPGESLRLSCTASGFTFSISAMSWVRQAPGKGLEWVSAISGTAYSTYYADSVRGRFTISRDNSKNTLYLQMNSLRAEDTAVYYCAKDNFFDYWGLGTLVTVSSASTKGPSVFPLAPCSRSTSESTAALGCLVKDYFPEPVTVSWNSGALTSGVHTFPAVLQSSGLYSLSSVVTVPSSSLGTKTYTCNVDHKPSNTKVDKRV[not shown - human IgG4 Fc with S228P (EU numbers)]
light: QSVMTQPPSASGTPGQRVTISCSGVTSNIGSNSVYWYQQLPGTAPKLLIYLNSQRPSGVPDRFSGSKSGTSASLAISGLQSEDEADYYCGTWDDSLNGWVFGGGTKLTVLGQPKAAPSVTLFPPSSEELQANKATLVCLISDFYPGAVTVAWKADSSPVKAGVETTTPSKQSNNKYAASSYLSLTPEQWKSHRSYSCQVTHEGSTVEKTVAPTECS
Q: B5 was tested. Which Kd [4] did it give?
A: Its Kd is 18 nM.

Q: What about the koff [4] of the same binder?
A: The koff was 0.0011 s⁻¹.

Q: What about the kon [4] of the same binder?
A: Its kon is 60000 M⁻¹ s⁻¹.

Q: What about the Kd [5] of the same binder?
A: The Kd was 221 nM.

Q: What about the koff [5] of the same binder?
A: The koff was 0.017 s⁻¹.

Q: What about the kon [5] of the same binder?
A: Its kon is 78000 M⁻¹ s⁻¹.

B6: A2-hIgG4-df-hIL-2 (F42I/I92D) (other)
heavy: DVQLVESGGGLVQPGGSLRLSCAASGFTFDISAMSWVRQAPGKGLEWVSTISGSAYSTYYADSVKGRFTISRDNSKSTLYLQMNSLRAEDTAVYYCAREIFSDYWGLGTLVTVSSASTKGPSVFPLAPCSRSTSESTAALGCLVKDYFPEPVTVSWNSGALTSGVHTFPAVLQSSGLYSLSSVVTVPSSSLGTKTYTCNVDHKPSNTKVDKRV[not shown - about 350 residues with a human IgG4 Fc and changes]
light: QSVLTQPPSASGTPGQRVTISCSGSTSNIGRESVYWYQQLPGTAPKLLIYSNVQRPSGAPNRFSGSKSGTSASLAISGLQSEDEADYYCGTWDDSLNGWVFGGGTKLTVLGQPKAAPSVTLFPPSSEELQANKATLVCLISDFYPGAVTVAWKADSSPVKAGVETTTPSKQSNNKYAASSYLSLTPEQWKSHRSYSCQVTHEGSTVEKTVAPTECS
Q: How did the “Agonistic Activity (TF1 + IL-2Rβ)” value [1] turn out when B6 was run?
A: The value was 90%.

Q: And the “Fold change from rhIL-2 (TF1 + IL-2Rβ)” value [1]?
A: The value was roughly 5610 fold.

Q: What about the “Fold change from rhIL-2 (NK-92)” value [2] of the same binder?
A: Its value is 9540 fold.

Q: What about the “Fold decrease from rhIL-2 (TF1 + IL-2Rβ + hPD-1)” value [3] of the same binder?
A: The value was roughly 9 fold.

B7: OMC476pB11-hIgG4 (antibody)
heavy: DVQLVESGGGVVRPGESLRLSCTASGFTFSISAMSWVRQAPGKGLEWVSAISGTAYSTYYADSVRGRFTISRDNSKNTLYLQMNSLRAEDTAVYYCAKDNFFDYWGLGTLVTVSSASTKGPSVFPLAPCSRSTSESTAALGCLVKDYFPEPVTVSWNSGALTSGVHTFPAVLQSSGLYSLSSVVTVPSSSLGTKTYTCNVDHKPSNTKVDKRV[not shown - human IgG4 Fc with S228P (EU numbers)]
light: QSVMTQPPSASGTPGQRVTISCSGVTSNIGSNSVYWYQQLPGTAPKLLIYLNSQRPSGVPDRFSGSKSGTSASLAISGLQSEDEADYYCGTWDDSLNGWVFGGGTKLTVLGQPKAAPSVTLFPPSSEELQANKATLVCLISDFYPGAVTVAWKADSSPVKAGVETTTPSKQSNNKYAASSYLSLTPEQWKSHRSYSCQVTHEGSTVEKTVAPTECS
Q: With B7 as the binder, how does the Kd [4] read?
A: The Kd was 30 nM.

Q: What about the koff [4] of the same binder?
A: The koff was 0.0015 s⁻¹.

Q: What about the kon [4] of the same binder?
A: The kon was 50000 M⁻¹ s⁻¹.

Q: What about the Kd [5] of the same binder?
A: The Kd was 321 nM.

Q: And the koff [5]?
A: Its koff is 0.026 s⁻¹.

Q: What about the kon [5] of the same binder?
A: The kon was 80000 M⁻¹ s⁻¹.
